{
  "source": "patent US12043670B2",
  "about": "“Anti-BCMA antibody-drug conjugates and methods of use” (Eisai R&D Management Co., Ltd., priority 2020, dated 2024)",
  "molecules": {"B1": {"name": "AB216-ADL1-D2-02 (conjugate)", "heavy": "QVQLVQSGAEVKKPGSSVKVSCKASGGTFSNYWIHWVRQAPGQGLEWMGATYRIQSDTYYNQKYKSRVTITADKSTSTAYMELSSLRSEDTAVYYCARGAVYHGYDVIDNWGQGTLVTVSS[omitted - human IgG1 constant region]", "light": "DIQMTQSPSSLSASVGDRVTITCRASQSISSYINWYQQKPGKAPKLLIYATSNLQIGVPSRFSGSGSGTDFTLTISSLQPEDFATYYCQQYRRLPWSFGQGTKLEIKRTVAAPSVFIFPPSDEQLKSGTASVVCLLNNFYPREAKVQWKVDNALQSGNSQESVTEQDSKDSTYSLSSTLTLSKADYEKHKVYACEVTHQGLSSPVTKSFNRGEC"}},
  "key": {"[1]": {"tested_on": "BCMA-negative Jurkat cells", "assay": "CellTiter-Glo cell viability, BCMA-negative Jurkat", "format": "cell-based", "experimental": "Briefly, all cells and ADC solutions were prepared in a laminar flow hood under sterile conditions. For each cell line to be assayed, cells were resuspended in the appropriate medium supplemented with FBS to a density of 5.56×10^4 cells/mL. 90 μL of cell suspension was added to all wells of clear-bottom, black-wall, 96-well plates. For all test articles (anti-BCMA ADCs and reference ADCs), 10× stocks of the highest concentrations to be tested were prepared in 96-well plates and serially diluted 1:3 nine times to generate a 10-point curve. 10 μL of each 10× test article solution were added to the appropriate wells of the 96-well plates containing 90 μL of cells, and plates were placed in humidified incubators at 37° C. with 5% CO2 for 6 days. Immediately after placing assay plates in the incubator, a single 96-well plate of cells was treated with CellTiter-Glo® reagent (Promega), incubated at room temperature for 10 min, and luminescence was quantified on an EnVision microplate reader. This plate served as a “time zero” reference and was used to interpret the data obtained after 6 days of incubation. Day-6 luminescence values less than those of the time zero plate were indicative of cell death, whereas signals less than the day-6 vehicle-treated cells but greater than the time zero signal were indicative of cytostatic activity. […]"}, "[2]": {"assay": "SEC analysis - aggregation / percent monomer", "format": "physicochemical", "conditions": "absorbance at 280 nm, ADC batch", "experimental": "The peak area absorbance at 280 nm was determined for the high molecular weight and monomeric conjugate components by area under the curve integration."}, "[3]": {"tested_on": "MOLP8 multiple myeloma xenograft", "assay": "MOLP8 xenograft model, anti-BCMA ADCs (Study 1)", "format": "in vivo, mouse", "conditions": "MOLP8 xenograft Study 1, conditions as OPM2 model (single intravenous dose 20 mg/kg)", "experimental": "Methods: Anti-tumor activity of exemplary anti-BCMA ADCs was assessed in an OPM2 multiple myeloma xenograft model. OPM2 cells were cultured and expanded for inoculation according to ATCC recommendations. […] Female CB17-Scid mice were inoculated subcutaneously with 100 μL of cell suspension on their right flanks and monitored for tumor growth. When the mean tumor volume reached ˜150 mm^3, mice were randomized into treatment groups and given a single intravenous dose (via tail vein) of 2.0 mg/mL dosing solution at 10 mL/kg for a total dose of 20 mg/kg. Mice were weighed and their tumors were measured two to three times/week. Animals with tumors exceeding 2000 mm^3 or 20 mm in any dimension were taken off study and appropriately euthanized according to IACUC protocol. Upon euthanasia, tumor samples and serum were collected and banked for subsequent analyses.\nMethods: To further evaluate the anti-tumor activity of exemplary anti-BCMA ADCs in vivo, a screen of the same ADCs was performed in a second multiple myeloma xenograft model, MOLP8. […] All experimental conditions in this study were identical to those used for the OPM2 model with the exception of the model itself and the number of days from tumor inoculation to dose administration (day of dosing is indicated by an arrow in FIG. 15)."}, "[4]": {"assay": "HPLC analysis - free drug", "format": "physicochemical", "conditions": "residual unconjugated linker-payload in ADC batch", "experimental": "Conjugate was precipitated with 10 volumes of acetonitrile on ice for 2 hours and spun down. Supernatants containing residual unconjugated payload were then injected onto an Agilent Poroshell 120 SB-C18120A column (4.6×100 mm, 2.7 μm) and eluted with a gradient of 45% B to 70% B over 10 min at RT. Mobile phase A was 100% water, mobile phase B was 100% acetonitrile, and the flow rate was 0.6 mL/min with detection at 252 nm. The amount of residual free drug was quantified via UV detection with comparison to the external standard curve of unconjugated linker-payload."}, "[5]": {"tested_on": "OPM2 multiple myeloma xenograft", "assay": "OPM2 xenograft model, anti-BCMA ADCs (Studies 1 and 2)", "format": "in vivo, mouse", "conditions": "OPM2 xenograft Study 2, CB17-Scid mice, single intravenous dose 20 mg/kg, day 28", "experimental": "Methods: Anti-tumor activity of exemplary anti-BCMA ADCs was assessed in an OPM2 multiple myeloma xenograft model. OPM2 cells were cultured and expanded for inoculation according to ATCC recommendations. Cells were pelleted and resuspended in a solution of serum-free RPMI-1640 medium (50% v/v) and Matrigel (50% v/v) at a density of 5.0×10^7 cells/mL. Female CB17-Scid mice were inoculated subcutaneously with 100 μL of cell suspension on their right flanks and monitored for tumor growth. When the mean tumor volume reached ˜150 mm^3, mice were randomized into treatment groups and given a single intravenous dose (via tail vein) of 2.0 mg/mL dosing solution at 10 mL/kg for a total dose of 20 mg/kg. Mice were weighed and their tumors were measured two to three times/week. Animals with tumors exceeding 2000 mm^3 or 20 mm in any dimension were taken off study and appropriately euthanized according to IACUC protocol. Upon euthanasia, tumor samples and serum were collected and banked for subsequent analyses.\nConjugates of AB213, AB214, and AB215 were assessed in a first experiment (FIG. 11; Table 30); conjugates of AB212, AB216, AB217, and AB218 were assessed in a second experiment (FIG. 12; Table 31).\nIn the second experiment, to evaluate the antibody-specific activity of ADCs incorporating exemplary anti-BCMA antibodies, a ‘non-targeting’ ADC was generated by conjugating the ADL1-D2 linker-payload to the anti-HER2 antibody trastuzumab (AB185) at an average DAR of ˜4.0."}, "[6]": {"assay": "Freeze-thaw testing (DAR, aggregation, concentration)", "format": "physicochemical", "conditions": "histidine/pH 6.0 buffer", "experimental": "Exemplary ADC samples (80 μL each, histidine/pH 6.0 buffer) were frozen at −80° C. for 2 hours. The samples were then placed at 22° C. for 30 min to remove visible ice. This completed one cycle. Sampling was performed at the starting point and after 1, 4, and 10 freeze-thaw cycles. 15 μL of each ADC was sampled each time, 7.5 μL of which was used to analyze DAR, aggregation, and concentration. Before analysis, all samples were stored at −80° C."}, "[7]": {"assay": "Accelerated stability testing at 37° C. (aggregation, concentration, DAR)", "format": "physicochemical", "conditions": "20 mM Histidine/HOAc pH 6.0", "experimental": "(§1) Exemplary anti-BCMA ADCs (˜1 mg each in Eppendorf tubes, ˜4-5 mg/mL) were centrifuged and measured by UV absorption (NanoDrop) at 280 nm to determine protein concentrations. Samples were then incubated in a 37° C. water bath and sampled at four time points, 0 (freshly prepared), 1 day, 2 days, and 4 days. Samples taken at different time points were stored at −80° C. until the last sampling was completed. After thawing at 22° C., samples were analyzed with SEC and hydrophobic interaction chromatography (HIC) for quantification of antibody aggregation and DAR."}, "[8]": {"assay": "HIC analysis - DAR of the ADC batch", "format": "physicochemical", "conditions": "for Drug-to-antibody ratio (DAR): HIC", "experimental": "as §1"}},
  "data": [
    {"molecule": "B1", "values": [
      {"measurement": "GI50", "setting": "[1]", "value": "≥ 400", "unit": "nM"},
      {"measurement": "LD50 (nM) Jurkat", "setting": "[1]", "value": 400, "unit": "nM"},
      {"measurement": "Percent Monomer", "setting": "[2]", "value": 99.11, "unit": "%"},
      {"measurement": "Tumor growth inhibition (% ± SEM, day 21)", "setting": "[3]", "value": "65.81 ± 11.49", "unit": "%"},
      {"measurement": "Free Drug (%)", "setting": "[4]", "value": 1.63, "unit": "%"},
      {"measurement": "Tumor growth inhibition (% ± SEM, day 28)", "setting": "[5]", "value": "96.99 ± 1.90", "unit": "%"},
      {"measurement": "Aggregation (%)", "setting": "[6]; After 6 freeze-thaw", "value": 0.65, "unit": "%"},
      {"measurement": "Concentration", "setting": "[6]; After 6 freeze-thaw", "value": 4920, "unit": "µg/mL"},
      {"measurement": "HIC DAR", "setting": "[6]; After 6 freeze-thaw", "value": 3.81},
      {"measurement": "Aggregation (%)", "setting": "[6]; Before freeze-thaw", "value": 0.89, "unit": "%"},
      {"measurement": "Concentration", "setting": "[6]; Before freeze-thaw", "value": 4910, "unit": "µg/mL"},
      {"measurement": "HIC DAR", "setting": "[6]; Before freeze-thaw", "value": 3.80},
      {"measurement": "Aggregation (%)", "setting": "[7]; 0 d at 37° C.", "value": 0.65, "unit": "%"},
      {"measurement": "Concentration", "setting": "[7]; 0 d at 37° C.", "value": 4920, "unit": "µg/mL"},
      {"measurement": "DAR (HIC)", "setting": "[7]; 0 d at 37° C.", "value": 3.81},
      {"measurement": "Aggregation (%)", "setting": "[7]; 1 d at 37° C.", "value": 0.92, "unit": "%"},
      {"measurement": "Concentration", "setting": "[7]; 1 d at 37° C.", "value": 4520, "unit": "µg/mL"},
      {"measurement": "DAR (HIC)", "setting": "[7]; 1 d at 37° C.", "value": 3.82},
      {"measurement": "Aggregation (%)", "setting": "[7]; 2 d at 37° C.", "value": 1.60, "unit": "%"},
      {"measurement": "Concentration", "setting": "[7]; 2 d at 37° C.", "value": 5560, "unit": "µg/mL"},
      {"measurement": "DAR (HIC)", "setting": "[7]; 2 d at 37° C.", "value": 3.81},
      {"measurement": "Aggregation (%)", "setting": "[7]; 4 d at 37° C.", "value": 2.73, "unit": "%"},
      {"measurement": "Concentration", "setting": "[7]; 4 d at 37° C.", "value": 5310, "unit": "µg/mL"},
      {"measurement": "DAR (HIC)", "setting": "[7]; 4 d at 37° C.", "value": 3.84},
      {"measurement": "Drug-to-antibody ratio (DAR)", "setting": "[8]; batch used in MOLP8 Study 1", "value": 3.8},
      {"measurement": "Drug-to-antibody ratio (DAR)", "setting": "[8]; batch used in OPM2 Study 2", "value": 3.8},
      {"measurement": "HIC DAR", "setting": "[8]; batch used in cell viability analysis (Table 26)", "value": 3.8}
    ]}
  ]
}
